Out of some 310,000 compounds screened, about 14,000 (4.5%) showed an effect of 50% or more. The effect is printed as a negative number. Some of the results follow.
The compounds below were run against human ether-à-go-go-related gene (hERG) potassium channel (human, UniProt Q12809) (assay: primary screen, population patch clamp on CHO cells stably expressing hERG).
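Also: peak tail current of the secondary pulse compared with the same well before compound.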

Chain of human ether-à-go-go-related gene (hERG) potassium channel (Q12809 whole entry, looked up): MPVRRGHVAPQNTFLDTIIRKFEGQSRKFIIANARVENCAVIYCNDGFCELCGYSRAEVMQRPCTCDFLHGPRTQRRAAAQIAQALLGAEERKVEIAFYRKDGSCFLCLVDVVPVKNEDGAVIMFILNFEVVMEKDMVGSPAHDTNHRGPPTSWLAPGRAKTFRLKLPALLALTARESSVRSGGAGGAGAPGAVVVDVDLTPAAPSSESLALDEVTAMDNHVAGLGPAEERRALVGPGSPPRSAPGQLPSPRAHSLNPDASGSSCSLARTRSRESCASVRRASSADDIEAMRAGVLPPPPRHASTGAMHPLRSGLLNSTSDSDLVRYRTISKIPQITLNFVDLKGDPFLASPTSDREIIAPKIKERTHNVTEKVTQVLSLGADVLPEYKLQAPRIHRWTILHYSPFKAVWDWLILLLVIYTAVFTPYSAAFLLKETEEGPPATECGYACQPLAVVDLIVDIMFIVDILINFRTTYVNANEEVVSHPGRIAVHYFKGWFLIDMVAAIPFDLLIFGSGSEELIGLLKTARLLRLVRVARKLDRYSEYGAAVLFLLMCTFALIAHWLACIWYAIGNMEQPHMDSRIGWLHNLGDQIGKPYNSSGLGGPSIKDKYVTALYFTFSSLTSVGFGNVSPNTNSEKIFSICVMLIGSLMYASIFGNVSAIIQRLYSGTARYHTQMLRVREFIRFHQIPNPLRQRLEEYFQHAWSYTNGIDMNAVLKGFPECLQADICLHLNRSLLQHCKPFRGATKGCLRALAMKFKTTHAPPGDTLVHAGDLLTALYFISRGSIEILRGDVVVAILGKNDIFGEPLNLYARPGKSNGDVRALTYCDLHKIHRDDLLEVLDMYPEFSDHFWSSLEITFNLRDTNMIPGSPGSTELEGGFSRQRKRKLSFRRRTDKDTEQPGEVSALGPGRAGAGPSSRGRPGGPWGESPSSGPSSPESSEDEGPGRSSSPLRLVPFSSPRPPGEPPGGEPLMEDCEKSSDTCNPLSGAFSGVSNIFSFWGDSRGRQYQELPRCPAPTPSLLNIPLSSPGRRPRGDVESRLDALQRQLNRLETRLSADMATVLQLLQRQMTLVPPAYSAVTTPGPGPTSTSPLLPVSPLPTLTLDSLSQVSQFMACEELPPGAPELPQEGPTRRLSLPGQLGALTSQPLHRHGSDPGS

Point of comparison: `CC(=O)Nc1sc(C)c(C)c1C(=O)OCC(=O)Nc1ccccc1`, “hERG current change (%, negative = inhibition) at 10uM” value 5.91%. Against it:
- CCn1c(SCC(=O)Nc2cc(OC)c(OC)c(OC)c2)nnc1-c1cccs1 — lower, -7.07%
- CCOC(=O)c1nn(-c2cccc(OC)c2)c2nc(CC)c(C#N)c(=O)n12 — lower, -3.07%
- CCOC(=O)c1ccccc1NC(=O)CSc1nncn1C — higher, 9.27%
- COc1cc(CN2CCCC(CO)(Cc3ccccc3)C2)ccc1O (centres unmarked) — lower, -17.6%
- COc1cc(/C=N/NC(=O)CNC(=O)c2ccncc2)ccc1O — lower, 3.69%
- CCCCCN(C(=O)NC(=O)Nc1ccc(C)cc1C)S(C)(=O)=O — higher, 13.2%
- O=P(c1ccccc1)(c1nc2ccccc2s1)N1CCOCC1 (centres unmarked) — higher, 16.6%
- COc1ccc(S(=O)(=O)NC(C)C(=O)NCc2ccccn2)cc1OC (centres unmarked) — higher, 13.1%
- CNC(=S)NCCC(c1ccccc1)c1ccccc1 — higher, 7.46%
- NS(=O)(=O)c1cccc(NC(=O)CC23CC4CC(CC(Br)(C4)C2)C3)c1 — lower, -1.64%
- CCOC(=O)CSc1nc(C2CC2)nc2ccccc12 — lower, -2.14%
- COc1cccc(NC(=O)N2CCC(NC(=O)C3CCCCC3)CC2)c1 — higher, 17.7%
- Cc1ccc(-c2nc(N/N=C/c3cccc([N+](=O)[O-])c3)c3ccccc3n2)cc1 — lower, 1.31%
- CC(C)C/C(=N/O)c1c[nH]c2ccccc12 — lower, -0.0398%
- CCNC(=O)NC(=O)COC(=O)c1ccccc1SCC(=O)NC(=O)NCC — lower, 3.64%
- CCOP(=O)(NC12CC3CC(CC(C3)C1)C2)NC12CC3CC(CC(C3)C1)C2 — higher, 16.2%
- Cc1ccccc1OCCN1CCCC1 — higher, 7.01%
- CCN=c1scc(C)n1/N=C/c1cc(Br)c(O)c(Br)c1 — lower, 2.83%
- CC1(OC(=O)C2CCCC2)C(=O)C=C2C=C(c3ccsc3)N(C3CCCCC3)C=C2C1=O (centres unmarked) — lower, -15.8%
- CCOc1ccc(Nc2c3c(nc4ncnn24)CC(C)CC3)cc1 (centres unmarked) — lower, -53.9%
- CCOC(=O)C1C2C=CC3(CN(c4ccc(Cl)c(F)c4)C(=O)C13)O2 (centres unmarked) — lower, 5.52%
- CC1CN(c2ccccc2)CCN1Cc1nc(Cc2ccccc2)no1 (centres unmarked) — lower, -1.98%
- C/C(=N/NC(=O)CNS(=O)(=O)c1ccc(C)cc1)c1cccc([N+](=O)[O-])c1 — higher, 14.5%
- C=CCOC(=O)Nc1c(C(=O)OC)[nH]c2ccc(Cl)cc12 — higher, 13.8%
- CC1CCCN(C(=O)CN(c2ccccc2)S(=O)(=O)c2ccc(F)cc2)C1 (centres unmarked) — lower, -5.72%
- Cc1ccc(OCCNC(=O)CCC(=O)N2CCOCC2)cc1 — higher, 15.9%
- Cc1ccc(-c2nnn(CC(=O)N(c3cnc4ccccc4c3)C(C(=O)NC3CCCC3)c3ccncc3)n2)o1 (centres unmarked) — higher, 10.8%
- CC(=O)NC(c1ccc(Cl)cc1)c1c(O)ccc2ccc(O)cc12 (centres unmarked) — lower, -4.15%
- Nn1c(SCC(=O)NC2CCCCC2)nnc1C1CC1 — higher, 20.7%
- CCOc1ccc(C2c3c(oc4cc(C)c(C)cc4c3=O)C(=O)N2CCCN(C)C)cc1OC (centres unmarked) — lower, -2.54%
- O=S(=O)(NC1CCCC1)c1ccc(-n2cnnn2)cc1 — lower, -3.62%
- O=S(=O)(c1ccccc1)N1CCn2c(nc3ccccc32)C1 — higher, 13.9%
- Cc1cccc(C(=O)NC2CCN(C(=O)Nc3ccccc3C)CC2)c1 — higher, 18%
- C=CCOc1ccc(/C=C/C(=O)OCC(=O)N(C)CC(=O)Nc2ccc(F)cc2)cc1 — higher, 7.74%
- CCOc1ccc(-c2c(C(=O)N/N=C/c3ccsc3)nnn2-c2nonc2N)cc1 — higher, 16.5%
- CN(c1ccccc1)S(=O)(=O)c1cccc(C(=O)NCCCN2CCCC2=O)c1 — lower, -11.2%
- Cn1cnnc1SCC(=O)NCCc1ccc(Cl)cc1Cl — higher, 11.2%
- O=C(NC1=NCCS1)Nc1ccccc1 — lower, 1.08%
- Cc1c(Cl)cccc1NC(=S)N(CCN(C)C)C(C)c1ccccn1 (centres unmarked) — lower, -17.5%
- Cc1c(CCC(=O)O)c(=O)oc2c(C)c3occ(-c4ccc(Cl)cc4)c3cc12 — lower, 0.602%
- O=C(Nc1ccc(NC(=O)c2cccs2)c(Cl)c1)c1ccco1 — lower, -39.4%
- CC(=O)c1ccc(N/N=C2/CCCNC2=O)cc1 — higher, 11.3%
- Cc1cc(C)cc(C(=O)NN2CCN(C)CC2)c1 — higher, 39.5%
- CC1CCCC(NC(=O)CCn2c(=O)oc3ccccc32)C1C (centres unmarked) — lower, -18.4%
- Cc1ccc(C(=O)N/C(=C\c2cccs2)C(=O)NCCc2ccccn2)cc1C — lower, -1.92%
- COc1ccccc1OCCC(=O)OCC(=O)Nc1ncc(Cl)cc1Cl — lower, 4.02%
- CC(=O)c1ccc(N2CCN(S(=O)(=O)c3cccc4nsnc34)CC2)cc1 — higher, 22.5%
- CCOc1cc(/C=N/NC(=O)C(O)(c2ccccc2)c2ccccc2)ccc1OC(=O)c1ccco1 — lower, 5.61%
- CC(=O)N1[C@H](C)C=C[C@]1(Cc1ccccc1)C(=O)NCCc1c[nH]c2ccccc12 — lower, -3.45%
- CC(=O)Nc1ccc(NC(=O)C(C)OC(=O)CNC(=O)c2ccc(-c3ccccc3)cc2)cc1 (centres unmarked) — lower, 5.55%
- Cc1ccc(Cl)cc1NC(=O)c1ccccn1 — lower, -2.04%
- O=C(CCc1nc2ccccc2s1)OCC(=O)c1ccccc1 — lower, -13.6%
- COc1cccc(-c2cc(C(=O)Nc3cccnc3Cl)no2)c1 — higher, 25.5%
- COC(=O)c1ccc(/C=C/C(=O)c2ccc(OC)c(OC)c2)cc1 — higher, 8.72%
- Cc1cccc(CN2CCN(C(=O)c3ccccc3F)CC2)c1 — lower, -5.65%
- COc1ccc(CNC(=O)c2cc(=O)c3cc(C)cc(C)c3o2)cc1 — lower, 2.04%
- O=C(CSCc1n[nH]c(=O)[nH]1)NCCOc1cccc(Oc2ccccc2)c1 — higher, 6.56%
- CCS(=O)(=O)N1CCC(NC(=O)C(Cc2ccc(OC)c(OC)c2)NC(C)=O)CC1 (centres unmarked) — higher, 17.6%
- Cc1nn(-c2ccccc2C(=O)O)c(=O)c2ccccc12 — lower, -0.605%
- CC1Cc2ccccc2N1C(=O)C1CCCCN1S(=O)(=O)c1ccccc1 (centres unmarked) — lower, -0.157%
- Cn1c(SCC(=O)Nc2ccc3[nH]c(=O)[nH]c3c2)nnc1-c1ccc(F)cc1 — higher, 7.63%
- COc1ccc(C(=O)C2CCCN(Cc3cnc(C)s3)C2)c(OC)c1 (centres unmarked) — lower, -42.3%
- C=C(C)C1CC=C(C)/C(=N/NC(=O)c2cccs2)C1 (centres unmarked) — higher, 19.1%
- Cc1ccc(NS(=O)(=O)c2cccc(C(=O)NCC3(N(C)C)CCCCC3)c2)cc1 — lower, -22.4%
- CC1CC(C)CN(S(=O)(=O)N2CCC(C(=O)NCCc3ccccc3)CC2)C1 (centres unmarked) — higher, 22.2%
- COCCn1nnnc1C(C(C)C)N1CCCC(C)C1.Cl (centres unmarked) — higher, 10.7%
- COC(=O)c1ccc(N=Nc2ccccc2)cc1 — lower, 3.06%
- CCOc1cc(/C=C2\C(=N)N3N=C(CC)SC3=NC2=O)ccc1OCCOc1ccc(NC(C)=O)cc1 — higher, 12.7%
- COc1ccc(/C=C/C(=O)c2cc(Br)ccc2O)cc1OC — higher, 20.3%
- O=C1CS/C(=C\S(=O)(=O)c2ccc(Cl)cc2)N1 — lower, -0.909%
- Cc1cc(C(=O)CSc2nnc(N)s2)c(C)n1Cc1ccco1 — higher, 23.7%
- CCOC(=O)c1cc(-c2ccccc2)sc1NC(=O)CSc1nnnn1C — lower, -16.3%
- CCN(Cc1ccccc1)C(=O)c1ccc(Cl)cc1[N+](=O)[O-] — lower, -4.22%
- COc1cc(/C=N\NC(=O)c2ccc(Cn3cc(Br)c([N+](=O)[O-])n3)o2)cc(OC)c1O — lower, -11.9%
- O=C(Cn1nc(C(F)F)cc1C(F)F)N/N=C/c1ccc2c(c1)OCO2 — higher, 24.7%
- Cc1ccc(CNC(=O)CSCc2cccc(F)c2)cc1 — lower, -15.8%
- C=CCn1c(CNC(=O)c2cccs2)nnc1SCC(=O)c1ccc(Br)cc1 — lower, -19.3%
- Cc1cccc(NC(=O)c2ccc(S(=O)(=O)N(C)C)cc2)n1 — lower, -4.13%
- Cc1ccc2oc(-c3ccccc3C(=O)O)cc(=O)c2c1 — lower, -2.39%
- CCCCN(C)C(=S)Nc1ccc2nc3n(c(=O)c2c1)CCCCC3 — lower, -81.2%
- Cc1ccc(S(=O)(=O)CCC(=O)Oc2ccc3c(C)cc(=O)oc3c2)cc1 — higher, 7.67%
- CCN(CC)c1ncnc2c1sc1nc(C)cc(C)c12 — lower, -0.761%
- COc1cc(/C=C/C(=O)c2cccc([N+](=O)[O-])c2)cc(OC)c1OC — lower, 3.28%
- O=C(Nc1cccc(Cl)c1)C1CCCN(S(=O)(=O)c2ccc(F)cc2)C1 (centres unmarked) — lower, -4.67%
- CCn1ccc(C(=O)Oc2ccc(Cl)cc2)n1 — higher, 7.51%
- CC(NCc1ccc([N+](=O)[O-])cc1)C1COc2ccccc2O1.O=C(O)C(=O)O (centres unmarked) — lower, -66.2%
- Nc1nnc(Sc2ccc(Cl)cc2[N+](=O)[O-])s1 — higher, 16.3%
- Cc1ccc(NC(=O)ON=C2CCCC2)cc1 — lower, 1.04%

Reference: paper PMC4336329 (PLoS ONE, 2015)
